Data taken from PubChem BioAssay AID887 (National Center for Advancing Translational Sciences (NCATS), 2007).
Hit rate of the full screen: of about 74,000 compounds, about 1,100 (1.5%) were called active. Inconclusive means that the source gave no clear call. Such entries were picked first, then a sample of the others. Calls follow the shape of the dose curve; as a rule, active = well fitted inhibition curve with a large enough effect; inconclusive = small, poorly fitted or top-dose-only effect; inactive = no such curve, though single readings can be large or run the other way. Potencies of inconclusive entries are left out as doubtful fits.

Each molecule was assayed against Polyunsaturated fatty acid lipoxygenase ALOX15 (Homo sapiens) (UniProt P16050) (assay: qHTS Assay for Inhibitors of 15-hLO (15-human lipoxygenase)). Conditions: purified 15hLO-1, xylenol orange hydroperoxide absorbance; activity change, negative = inhibition: at 57.1 µM (top of the series) unless noted.
Summary of the method: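 Compounds were preincubated 15 min at room temperature with 40 nM purified human enzyme (25 mM Hepes pH 7.5, 0.01% Triton X-100); 50 uM arachidonic acid reacted 6 min. Fe-xylenol orange detection, 30 min, absorbance ratio 573/405 nm.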
% is scaled to controls: 0 for no effect and ±100 for the full control effect; potency is read from the fitted curve at half-maximal effect; tags tell the direction and shape of the fitted curve.
Also: nearly all actives have a fitted effect of over 55% in size.

UniProt P16050, sequence (P16050 whole entry, looked up): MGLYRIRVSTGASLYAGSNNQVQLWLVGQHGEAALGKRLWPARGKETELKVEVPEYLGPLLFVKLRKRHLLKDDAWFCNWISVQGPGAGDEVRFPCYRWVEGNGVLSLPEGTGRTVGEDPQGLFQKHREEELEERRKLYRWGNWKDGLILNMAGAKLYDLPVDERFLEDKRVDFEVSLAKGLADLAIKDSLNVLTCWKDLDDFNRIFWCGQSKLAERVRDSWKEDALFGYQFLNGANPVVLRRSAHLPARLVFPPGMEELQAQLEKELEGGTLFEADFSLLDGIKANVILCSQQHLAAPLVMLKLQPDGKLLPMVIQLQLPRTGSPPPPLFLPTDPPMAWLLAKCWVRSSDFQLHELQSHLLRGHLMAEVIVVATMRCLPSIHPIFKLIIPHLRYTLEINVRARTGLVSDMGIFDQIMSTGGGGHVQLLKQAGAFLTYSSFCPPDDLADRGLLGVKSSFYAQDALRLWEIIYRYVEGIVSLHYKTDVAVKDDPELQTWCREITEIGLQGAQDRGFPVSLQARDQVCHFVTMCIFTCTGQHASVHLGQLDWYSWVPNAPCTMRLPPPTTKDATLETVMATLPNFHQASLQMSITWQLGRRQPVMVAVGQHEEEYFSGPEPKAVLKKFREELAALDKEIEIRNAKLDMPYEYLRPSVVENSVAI

Compound	Potency	activity change, negative = inhibition
O=C(Nc1cccc2ccccc12)N1CCN(Cc2ccccc2)CC1	active: 0.631 µM	
Nn1c(-c2cccc(Br)c2)n[nH]c1=S	inconclusive [inhibitor, partial curve]	
Cc1ccc(S(=O)(=O)c2c(N)n(C)c3nc4ccccc4nc23)cc1	inconclusive [inhibitor, single point]	
COc1ccc(C2C(C(C)=O)=C(C)N=c3s/c(=C\c4cc(C)n(C)c4C)c(=O)n32)c(OC)c1 (stereo unspecified)	inconclusive [inhibitor, single point]	
COCCSc1ccccc1C(=O)NCC1CCCO1 (stereo unspecified)	inconclusive [inhibitor, full curve, poor fit]	
CC(c1ccccc1)n1cc(C(=O)NCCCn2ccnc2)nn1 (stereo unspecified)	inactive	
CCCSc1nc(C)c(-c2csc(C(C#N)=C3CCCC3)n2)cc1C#N	inconclusive [inhibitor, partial curve, poor fit]	
COc1cccc(Cn2c(=O)cnc3cnc(Oc4cccc(Cl)c4)nc32)c1	inactive	
Cn1c(=O)c2c(nc(CN3CCCCC3)n2Cc2c(F)cccc2Cl)n(C)c1=O	inconclusive [inhibitor, single point]	
CN(C)C/C=C(\c1ccc(Br)cc1)c1cccnc1	inactive	
Cc1ccc2nc3c(cc(C(N)=S)c(=N)n3CCCOC(C)C)c(=O)n2c1	inconclusive [inhibitor, single point]	
CO[C@@H]1C[C@H](O[C@H]2[C@@H](C)[C@H](O[C@@H]3O[C@@H](C)C[C@@H](N(C)C)[C@@H]3OC(C)=O)[C@H](C)C[C@]3(CO3)C(=O)[C@H](C)[C@H](OC(C)=O)[C@H](C)[C@H](C)OC(=O)[C@@H]2C)O[C@H](C)[C@@H]1OC(C)=O	inactive	
CCc1ccc2[nH]c(=O)c(CN(CCCN3CCOCC3)C(=O)Nc3ccc(F)cc3)cc2c1	active: 15.8 µM	
CCC(C)(C(=O)NC1CCCCC1)N(Cc1ccco1)C(=O)c1cnccn1 (stereo unspecified)	inactive	
Cc1ccc(C(=O)CC2(O)C(=O)N(CCc3ccccc3)c3ccc(Br)cc32)o1 (stereo unspecified)	inconclusive [inhibitor, single point]	
N#Cc1c(N)oc(-c2ccccc2)c1-c1ccccc1	inconclusive [inhibitor, partial curve]	
N#CC(c1nc2ccccc2nc1N1CCCC1)S(=O)(=O)c1ccccc1 (stereo unspecified)	inconclusive [inhibitor, partial curve]	
CC1=CC(=O)CC(C)(C)C1(O)/C=C/C(C)=C\C(=O)O (stereo unspecified)	inactive	
O=C(c1ccccc1)c1cncc(Br)c1	inconclusive [inhibitor, single point]	
CCN(CC)S(=O)(=O)c1ccc(O)c(C(=O)OCC(=O)N(C)Cc2ccccc2)c1	inconclusive [inhibitor, single point]	
NC(=O)c1c(NC(=O)CN2CCOCC2)sc2c1CCC2	inconclusive [inhibitor, single point]	
CCOC(=O)c1cccc2c1-c1ccccc1/C2=N/O	inconclusive [inhibitor, partial curve]	
O=C(NCC1CCCO1)c1sc(=S)n2c1[nH]c(=O)c1ccc(C(=O)N3CCCCC3)cc12 (stereo unspecified)	inconclusive [inhibitor, partial curve]	
CCC1(C)Cc2nc3sc(C(=O)O)c(N)c3cc2CO1 (stereo unspecified)	inconclusive [inhibitor, full curve]	

Compound	Potency	activity change, negative = inhibition
COc1ccccc1-c1nc(Nc2ccncc2)c2ccccc2n1	inconclusive [inhibitor, partial curve]	
CC(=O)N1CCC2(CCCN(Cc3nccs3)C2)CC1	inactive	
COc1ccc(N2CCN(S(=O)(=O)c3cccc4cccnc34)CC2)cc1	inconclusive [inhibitor, single point]	
CC(=O)OCC(=O)[C@]1(O)C(C)CC2C3CCC4=CC(=O)C=C[C@@]4(C)[C@]3(F)C(O)C[C@@]21C (stereo partly specified)	inactive	
C1=C(N2CCOCC2)/C(=C/c2nc3ccccc3[nH]2)CC1	inconclusive [inhibitor, partial curve]	
O=C(c1cnccn1)N1CCC2(CC1)CCN(c1ccncc1)CC2	inactive	
CC(=O)OC[C@@H]1O[C@@H](O/N=C2/C[C@@H](O)[C@@H](O)[C@@H]3[C@@H]4C(=O)N(C[C@@H]5CCCO5)C(=O)[C@H]4CC[C@H]23)[C@H](OC(C)=O)[C@H](OC(C)=O)[C@@H]1OC(C)=O		inactive: 1.45% [at 11.4 µM]
CCN(C(=O)c1ccc(C(C)(C)C)cc1)c1nnc(Cn2nnc3ccccc32)s1	inconclusive [inhibitor, single point]	
Cc1nc2ccccc2c(=O)n1/N=C/c1ccc(N(C)C)cc1	inactive	
COc1ccc(OC)c(C2C3CN(C(C)C)CC=C3C(C#N)=C(N)C2(C#N)C#N)c1 (stereo unspecified)	inconclusive [inhibitor, partial curve]	
O=C1NC(c2ccco2)Nc2sc3c(c21)CCN(Cc1ccccc1)C3 (stereo unspecified)	inconclusive [inhibitor, partial curve]	
COc1ccccc1CN1CCC2(CC1)CCN(C(=O)c1cccc(F)c1)CC2	inactive	
CN(C)Cc1cc(O)c(O)c(CN(C)C)c1	inconclusive [inhibitor, full curve]	
COC(=O)c1ccccc1NS(=O)(=O)c1cn(C)c(=O)n(C)c1=O	inconclusive [inhibitor, partial curve]	
COc1ccc(C(=O)CSc2nnc(CNc3ccc(C)cc3C)n2Cc2ccco2)cc1	inconclusive [inhibitor, partial curve]	
COC(=O)c1cn(CCOc2ccccc2)c2ccccc12	inactive	
O=C(O)CCc1nnc2n(Cc3ccc(F)cc3)c(=O)c3ccccc3n12	inactive	
Cc1conc1NC(c1cccs1)c1ccc2cccnc2c1O (stereo unspecified)	inconclusive [inhibitor, single point]	
O=C(OCC(=O)c1cccs1)c1ccccc1	inactive	
Cc1ccsc1C1C=C(c2cccc(Br)c2)Nc2ncnn21 (stereo unspecified)	active: 15.8 µM	
Cc1ccc(C2C(C#N)=C(N)Oc3cc4c(cc32)OCO4)cc1 (stereo unspecified)	inconclusive [inhibitor, single point]	
CCc1ccccc1NC(=O)c1cc2sccc2n1C	inconclusive [inhibitor, single point]	
Cc1ccccc1-c1nccc(NCCN2CCOCC2)n1	inactive	
CC(=O)Nc1nc(=S)ss1	inconclusive [inhibitor, partial curve]	

Compound	Potency	activity change, negative = inhibition
CN(C)c1nc(-c2ccoc2)nc2ccccc12	inconclusive [inhibitor, partial curve]	
COc1cc(O)ccc1C(C)=O	inactive	
O=C1c2ccccc2C(=O)N1CCSc1nnc(-c2ccco2)n1Cc1ccccc1	inconclusive [inhibitor, single point]	
C#CCSc1nnc(-c2cccc3ccccc23)o1	inconclusive [inhibitor, single point]	
Cc1cc(C)nc(NC(=O)NS(=O)(=O)Nc2ccc(Br)cn2)n1	inconclusive [inhibitor, single point]	
N#C/C(=C\c1ccc(O)c(O)c1)C(=O)NCc1ccccc1	inconclusive [inhibitor, partial curve]	
CCCC(c1nnnn1C1CCCCC1)N1CCN(C2CCCC2)CC1 (stereo unspecified)	inactive	
Cc1cc2cc(CN(Cc3ccc4c(c3)OCO4)C(=O)c3cnccn3)c3nnnn3c2cc1C	inconclusive [inhibitor, partial curve]	
CCN(CC)C(=O)CSc1nc(C)cc(-c2cccs2)c1C#N	inconclusive [inhibitor, partial curve]	
Cc1ccccc1NC(=O)CSc1[nH]c(=O)cc(C)c1C#N	inconclusive [inhibitor, partial curve]	
COC(=O)c1ccccc1NS(=O)(=O)c1ccc2c3c(cccc13)C(=O)N2	inactive	
C=CCCC	inactive	
CCS(=O)(=O)Nc1c(C(=O)OC)[nH]c2ccccc12	inactive	
O=C(c1ccccc1)c1ccc(C(=O)N2CCN(c3ccc(F)cc3)CC2)o1	inconclusive [inhibitor, single point]	
N=c1c(C(=O)NCc2ccc(F)cc2)cc2c(=O)n3ccccc3nc2n1CC1CCCO1 (stereo unspecified)	inactive	
COCCNC(=O)C(c1ccc(C)o1)N(CC1CCCO1)C(=O)Cn1nnc2ccccc21 (stereo unspecified)	inconclusive [inhibitor, full curve, poor fit]	
N#Cc1ccccc1NC(=O)Nc1cccc(Cl)c1	inconclusive [inhibitor, partial curve]	
CCC(COC(=O)Nc1cccc(C)c1)NC(=O)OCC(C)C (stereo unspecified)	inconclusive [inhibitor, partial curve]	
CC(C)c1ccc2oc(-c3ccc(NC(=O)c4ncn[nH]4)cc3)nc2c1	inconclusive [inhibitor, partial curve]	
CCCCC(=O)NCCc1c(Cc2ccccc2)[nH]c2ccccc12	inconclusive [inhibitor, single point]	
COc1ccc2nc(NCc3ccccc3)[nH]c2c1	inactive	
COCCNc1nc(C)nc2c1nc(-c1ccccc1)n2CCN1CCCCC1	inconclusive [inhibitor, single point]	
CCNc1ncc2nc(-c3cccs3)c(=O)n(CCc3ccccc3)c2n1	inactive	
